Test results: PubChem BioAssay AID1508642 (National Center for Advancing Translational Sciences (NCATS), 2021)
The campaign covered roughly 43,000 compounds. About 200 (0.47%) were called active. About 12% were inconclusive and are not listed. Calls come from the whole dose curve; as a rule, active = well fitted cell-killing curve with a large enough effect; inconclusive = small, poorly fitted or top-dose-only effect, or effect the other way; inactive = flat fitted curve, though single readings scatter. The list shows a part of the results.

Test: Cell viability qHTS assay in S16 Pmp22-F2sN cells; note: nearly all actives have a fitted effect of over 65% in size
Conditions: S16 Pmp22-F2sN Schwann cells viability, CellTiter-Glo, 24 h; series mostly up to 57.5 µM; activity change, negative = cytotoxicity: at the top concentration
Procedure, shortened: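 Viability was measured by CellTiter-Glo luminescence (15 min, room temperature). This followed 24 h at 37 °C of compound exposure (23 nL pin transfer) in S16 Pmp22-F2sN Schwann cells, 500-1,000 per well.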
% is set by controls: 0 for no effect and ±100 for the full control effect; potency is the fitted concentration of half-maximal effect.

SMILES	activity change, negative = cytotoxicity	Potency
COC(=O)c1ccc(NC(=O)C(=O)NCCc2csc3nc(-c4ccccc4F)nn23)cc1	inactive: 6.15%	
CCN(CC)S(=O)(=O)c1ccc2c(c1)N(CC(=O)Nc1cccc(C)c1C)C(=O)C1CCCN21 (configuration not stated)	inactive: -6.42%	
COc1cc(OC)c(NC(=O)C(CC(C)C)N2Cc3ccccc3C2=O)cc1Cl (configuration not stated)	inactive: -10.1%	
CCOc1ccccc1NC(=O)CSc1cn(CC(=O)N2CCCCCC2)c2ccccc12	inactive: 6.86%	
Nc1nonc1-c1nc2ccccc2n1CC(=O)Nc1cccc(C(F)(F)F)c1	inactive: -17.2%	
Cc1ccc(NC(=O)CCN2C(=O)c3ccccc3Sc3ncccc32)cc1	inactive: -0.0364%	
Cc1cccc(Cn2cc3c(=O)n(CC(=O)Nc4cccc(C)c4C)nc-3c3cc(F)ccc32)c1	inactive: 1.46%	
Cc1c(C(=O)Nc2cccc(C(F)(F)F)c2)sc2nc3n(c(=O)c12)CCC3	inactive: -11.9%	
COc1ccc(NC(=O)c2cc(C3CC3)nc3c2c(C)nn3-c2ccccc2)c(OC)c1	inactive: -0.355%	
CC(C)Cc1nn2c(=O)cc(COC(=O)c3cccc(NC(=O)c4ccccc4)c3)nc2s1	inactive: 4.72%	
Cc1cccc(N2CCN(C(=O)c3cc4ccc5cccnc5c4[nH]3)CC2)c1C	inactive: 8.69%	
COCCn1c(C)cc(O)c(C(c2ccccc2)N2CCCCC2)c1=O (configuration not stated)	inactive: -1.61%	
CCc1ccccc1NC(=O)N1CCN(Cc2nc3ccc(C)cc3o2)CC1	inactive: 11%	
Cc1ccc(-n2ncc3c(Nc4ccc(Oc5ccccc5)cc4)ncnc32)cc1	inactive: -1.54%	
Clc1ccccc1CNCCCSc1nnnn1-c1ccccc1	inactive: 3.76%	
CCOc1ccc(/C=C/c2nc(C#N)c(NCc3ccc(OC)cc3)o2)cc1	inactive: 4.69%	
Cc1noc(C)c1S(=O)(=O)N(CC(=O)Nc1ccc(C(F)(F)F)cc1)c1ccc(C(C)C)cc1	inactive: -6.49%	
CCOCCCNC(=O)Cn1ncc2c([nH]c3ccccc32)c1=O	inactive: 9.61%	
CN(C)c1ccc(-c2nc3ccc(Cl)cn3c2Nc2ccc3c(c2)OCCO3)cc1	inactive: 7.34%	
CCCN(CCC)c1cc(C)nc2nc(-c3ccc(C(C)(C)C)cc3)nn12	inactive: -0.248%	
Cc1cc(C)cc(N2C(=O)CSC23C(=O)N(CC(N)=O)c2ccccc23)c1 (configuration not stated)	inactive: 2.98%	

SMILES	activity change, negative = cytotoxicity	Potency
Cn1nc(-c2ccccc2)c(-c2ccccc2)c(C(=O)Nc2ccccc2C(N)=O)c1=O	inactive: -8.14%	
CC(=O)N1CCc2cc(Br)cc(S(=O)(=O)CCC(=O)N3CCN(c4cccc(C)c4C)CC3)c21	inactive: -7.39%	
Cc1ccc(C)c(N2CCN(C3(c4ccccc4)C(=O)c4ccccc4C3=O)CC2)c1	inactive: -10.1%	
CCOCCCNC(=O)Cn1ncc2c([nH]c3ccc(C)cc32)c1=O	inactive: 0.459%	
COCCN(Cc1ccc(C)c(Br)c1)S(=O)(=O)c1ccc2[nH]c(=O)ccc2c1	inactive: 6.37%	
CCCN(c1ccccc1F)S(=O)(=O)c1cc(-c2cc(C)no2)ccc1C	inactive: -5.58%	
CC(C)(C)C1CCc2c(sc(NC(=O)c3cc(-c4ccc(F)cc4)on3)c2C#N)C1 (configuration not stated)	inactive: 8.92%	
Cc1cc(C)cc(-n2ccn3cnnc3c2=O)c1	inactive: -0.459%	
Cc1ccc(OCC(=O)OCc2cc(=O)n3nc(C4CC4)sc3n2)cc1C	inactive: -12.2%	
CCC(C(=O)NCCc1ccc(OC)c(OC)c1)n1nc(C)c2sc3ccccc3c2c1=O (configuration not stated)	inactive: 8.88%	
CCCCCCSc1nc(N)c2c3c(sc2n1)CCCC3C (configuration not stated)	inactive: -0.85%	
CSc1cccc(Nc2cc(C(=O)NC3CCCCC3)c3ccccc3n2)c1	inactive: -20.2%	
CCc1ccc2occ(CC(=O)Nc3c(C(=O)c4ccc(F)cc4)oc4ccccc34)c2c1	inactive: 9.74%	
COc1ccc(C)cc1NC(=O)Cn1c(=O)oc2cc(S(=O)(=O)N3CCCCCC3)ccc21	inactive: -0.773%	
CCOc1ccc(C(=O)N2CC(=O)Nc3ccc(F)cc3C2c2ccc(F)cc2)cc1 (configuration not stated)	inactive: 8.66%	
CCc1cccc(C)c1NC(=O)c1cc(CN2CCCC2)on1	inactive: 1.08%	
CC(C)NC(=O)C1CCCN(S(=O)(=O)c2ccc3c(ccn3C)c2)C1 (configuration not stated)	inactive: 2.69%	
COCCn1c(C)cc(O)c(C(c2cccc(F)c2)N2CCN(c3ccccc3)CC2)c1=O (configuration not stated)	inactive: 2.07%	
COc1ccc(-c2oc3ncn4nc(COc5ccc(Cl)cc5)nc4c3c2-c2ccc(OC)cc2)cc1	inactive: -0.931%	
CCc1nnc2c(Nc3cc(OC)c(Cl)cc3OC)nc3ccccc3n12	inactive: 2.37%	
COc1ccc(OC(=O)c2cn(-c3cccc(OC)c3)c(=O)c3ccccc23)cc1	inactive: 3.4%	

SMILES	activity change, negative = cytotoxicity	Potency
Cc1ccc(OC(C)C(=O)N2CCN(CCc3ccccn3)CC2)cc1C (configuration not stated)	inactive: 1.82%	
O=S(=O)(NCC(c1ccco1)S(=O)(=O)c1cccs1)c1ccccc1 (configuration not stated)		active: 31.6 µM
Cc1cc(Cl)ccc1NC(=O)C1CCCN(c2nnc(C)c3c(C)n(-c4ccccc4)nc23)C1 (configuration not stated)	inactive: 12.5%	
Cc1cc(C)c(NC(=O)C(C)n2nc(C)c3sc4ccccc4c3c2=O)c(C)c1 (configuration not stated)	inactive: -1.87%	
COc1cccc(N2CC(NC(=O)c3cccs3)CC2=O)c1 (configuration not stated)	inactive: 0.449%	
CC(CCc1ccccc1)NC(=O)CSc1n[nH]c(-c2ccccc2Cl)n1 (configuration not stated)	inactive: -5.61%	
CCc1ccc(CNC(=O)c2ccc(Cn3c(=O)c4cccn4c4cccnc43)cc2)cc1	inactive: 5.51%	
CCCc1nnc(NC(=O)CSc2nnc3c4ccccc4n(CC)c3n2)s1	inactive: 4.6%	
Cc1cccc(OCC(=O)Nc2ccc3nc(SCc4ccccc4)sc3c2)c1	inactive: 27.9%	
Cc1nc2ccccc2n1CCc1nc2c3ccccc3nc(SCc3ccccc3F)n2n1	inactive: -2.42%	
O=C(Nc1ncc(Cc2ccc(F)cc2)s1)c1ccc2c(c1)CC(c1ccccc1)OC2=O (configuration not stated)	inactive: 3.57%	
CCCCCn1c(CCCNC(=O)c2ccccc2)nc2ccccc21	inactive: -19.1%	
CCCC(=O)N1c2nc(-c3ccco3)nn2C2(CCCCC2)[C@@H]2CCCC[C@@H]21	inactive: 0.214%	
COc1cccc(NC(=O)Cn2c(=O)n(-c3ccc(C)cc3)c(=O)c3ccccc32)c1	inactive: -8.51%	
CCN1C(=O)C(Cc2nc3ccccc3c(=O)n2-c2cccc(C)c2)c2ccccc21 (configuration not stated)	inactive: -0.79%	
CC(C)Oc1ccc(C(=O)NCCc2csc(-c3cccc(F)c3)n2)cc1	inactive: -4.91%	
Cc1ccccc1NC(=O)c1c(C)oc2ccc(O)c(CN(C)Cc3ccccc3)c12	inactive: -21.1%	
Cc1ccc(-c2noc(-c3ccccc3OCC(=O)Nc3ccccc3[N+](=O)[O-])n2)cc1	inactive: 0.492%	
Cc1cccc(N(C)C(=O)Cn2cnc3nc4c(cc3c2=O)CCCC4)c1	inactive: -0.119%	
Cc1nn(C)c2c1c(C(F)(F)F)cc(=O)n2CC(=O)Nc1ccc(F)cc1F	inactive: -6.14%	
